The record followed here is ChEMBL document CHEMBL4888484, “Replenishing the malaria drug discovery pipeline: Screening and hit evaluation of the MMV Hit Generation Library 1 (HGL1) against asexual blood stage Plasmodium falciparum ,using a nano luciferase reporter read-out” (2022).

Molecules are shown by their SMILES. About 540 (0.36%) of roughly 150,000 compounds showed an effect of 50% or more. This is one part of the list.

The test system of the test is Plasmodium falciparum. In words: Primary screen in NF54 nanoGlo assay, in single point, at 2uM, 72h; a lower Z score goes with more inhibition. It counts as functional, Erythrocyte. The conditions noted are these: timepoint 72 hour.
For the compound `CC1CC(NC2CCN(c3ccc(C#N)cc3)CC2)C1` (stereo unspecified), the “% Inhibition” value is reported as -10% and the Z score is listed as 1.32.
Taken in the same sequence, the figures for `CC(=O)O/N=C(/c1nonc1N)N(C)C` were 3% and -0.51.
Taken in the same sequence, the figures for `c1cnc(-c2ccnc(NC3CC4CCC3C4)n2)cn1` (stereo unspecified) were 6% and -1.11.
Take `O=C(N[C@@H]1CN(Cc2ccc(F)cc2)CC[C@@H]1CO)c1ccccc1`: the “% Inhibition” value was -11% and the Z score turned out to be 1.4.
Taken in the same sequence, the figures for `CN(C)c1ccc(CNC(=O)[C@H]2CCCN(c3nc4ccccc4[nH]3)C2)cc1` were 0% and 0.06.
Taken in the same sequence, the figures for `COc1c(C#N)c(C#N)c(OC)c(OC)c1OC` were -2% and 0.33.
On the same counts, the results for `CC(C)c1nnc(CN[C@H]2CC(C)(C)CCc3ccccc32)o1` are -5% and 0.62.
Regarding `CCOCc1nc2c(c(NCCn3cc(Cl)cn3)n1)CCNCC2`, the “% Inhibition” value worked out at 13% and the Z score was -1.7.
On the same counts, the results for `CCN1C(=O)CCc2cc(C(=O)N3CCC(C)CC3)ccc21` are -7% and 1.18.
On the same counts, the results for `COC[C@](C)(NCc1ccc2cn[nH]c2c1)C(F)(F)F` are -7% and 1.35.
For `C[C@@H]1CN(CC(=O)NCCc2nnc(N)s2)C[C@H](C)O1`, the “% Inhibition” value was -1% and the Z score is listed as 0.19.
On the same counts, the results for `Cc1cc(C)c(C(=O)NC(C2CCNCC2)[C@H]2C[C@H](O)C2)c(C)c1` (stereo partly specified) are 6% and -0.74.
On the same counts, the results for `FC(F)(F)c1ccc2nnc([C@H]3CCCN(CN4CCOC4=S)C3)n2c1` are 7% and -0.99.
As to `COc1cc2cc(c1)C(=O)NCCCC(=O)N[C@H]1CN(Cc3ccnc(C(C)C)n3)CC[C@@H]1OCc1cccc(c1)O2`, the “% Inhibition” value was -14% and the Z score is listed as 2.67.
Regarding `Cc1ccc(CNC(=O)Cn2c(=O)ccc3cc(S(=O)(=O)N4CCC(C)CC4)ccc32)o1`, the “% Inhibition” value is on record as -9% and the Z score is recorded as 1.2.
On the same counts, the results for `CC1CCN(S(C)(=O)=O)C(C(C)O)C1` (stereo unspecified) are -5% and 0.67.
Taken in the same sequence, the figures for `Cc1csc(CNC(=O)c2ccc(C)o2)n1` were -8% and 1.03.
On the same counts, the results for `CCCc1ncn(Cc2nc(-c3ccccc3Cl)oc2C)n1` are -3% and 0.38.
As for `COc1nc(C)c(-c2cccc(C(=O)NC(C)(CO)CO)c2)c(C)c1C#N`, the “% Inhibition” value is listed as -10% and the Z score was 1.08.
Regarding `O=C(c1ccc2c(c1)OCO2)N1C2CCC1CC(S(=O)(=O)c1ccccc1)C2` (stereo unspecified), the “% Inhibition” value is reported as -7% and the Z score stood at 0.88.
On the same counts, the results for `O=S(=O)(Cc1ccccc1F)N1CCC[C@H]1c1noc(COCc2ccccc2)n1` are 1% and -0.08.
On the same counts, the results for `O=C(COc1ccccc1Cl)Nc1cc(S(=O)(=O)N2CCCC2)ccc1OCC(F)(F)F` are 8% and -0.95.
Taken in the same sequence, the figures for `O=C1CCc2cc(S(=O)(=O)N3CCCC3)cc3c2N1CCC3` were -12% and 1.54.
As for `O=C1C[C@H]2CC[C@@H](CN1)N2c1cc(-c2ccccc2F)nc2ccnn12`, the “% Inhibition” value is reported as -8% and the Z score came to 0.96.
Taken in the same sequence, the figures for `Cc1cc(S(=O)(=O)Nc2nccc(C)c2C2CC2)sc1C` were -7% and 1.09.
Taken in the same sequence, the figures for `COc1cc2c(cc1-c1nc3c([nH]1)c(C)nn3Cc1cccc(C)c1)OCO2` were 13% and -1.61.
Taken in the same sequence, the figures for `COc1ccccc1-n1ncnc1[C@@H]1COCCO1` were 1% and -0.11.
Turning to `Cc1ccc(Cc2nc3nc4c(c(Nc5ccc6c(c5)OCCO6)n3n2)CCCC4)cc1`, the “% Inhibition” value is -12% and the Z score is listed as 1.1.
Take `C[C@H](OC(=O)CNC(=O)COc1ccccc1)c1nc2ccccc2n1C(F)F`: the “% Inhibition” value is reported as -4% and the Z score amounted to 0.39.
On the same counts, the results for `COc1ccc(C)cc1-n1ccnc1-c1cc2n(n1)CCCNC2` are -11% and 1.06.
Taken in the same sequence, the figures for `CC[C@H](C)C(=O)Nc1ccccc1C(=O)NCc1nc(-c2cccnc2)no1` were 9% and -1.19.
On the same counts, the results for `O=C(COCc1cc(-c2ccco2)on1)NCCN1CCOCC1` are -2% and 0.2.
Turning to `O=C(c1cncc(F)c1)N1CC(CN2C(=O)CCC2=O)C1`, the “% Inhibition” value is -19% and the Z score was found to be 3.63.
On the same counts, the results for `C[C@H](O)CN1CCN(Cc2nc(C(=O)Nc3ccc(F)cc3)co2)CC1` are -9% and 1.6.
As for `O=C1CN(Cc2ccc3cc[nH]c3n2)CCCN1`, the “% Inhibition” value was found to be 5% and the Z score is -0.45.
For the compound `O=C([C@H]1CCOC1)N1CCN(C(=O)N2CCN(Cc3ccccc3)CC2)CC1`, the “% Inhibition” value is listed as -1% and the Z score turned out to be 0.15.
Taken in the same sequence, the figures for `O=C1Cc2cc(S(=O)(=O)Nc3ccc4c(c3)OC(F)(F)O4)ccc2N1` were -1% and 0.14.
As to `CC(C)c1noc(CCC(=O)NC[C@H](C)N2CCc3ccccc32)n1`, the “% Inhibition” value is reported as -11% and the Z score amounted to 1.54.
On the same counts, the results for `O=S(=O)(c1ccccc1)N1CCN(Cc2cncc(F)c2)CC1` are -5% and 0.88.
Taken in the same sequence, the figures for `NC(=O)Cn1nnc(-c2ccc3c(c2)OCO3)n1` were -10% and 1.26.
Taken in the same sequence, the figures for `CC(C)CN(C)CCCN1CC2(CCN(Cc3cccc(F)c3)CC2)OC1=O` were -1% and 0.16.
For the compound `CN(C)C(=O)CNS(=O)(=O)c1c(Cl)cc(F)cc1Cl`, the “% Inhibition” value is reported as -12% and the Z score is on record as 1.92.
Consider `COc1ccc(C(=O)N2CCC[C@@H]2C(N)=O)cc1OC1CCN(C(C)C)CC1`, for which the “% Inhibition” value was 3% and the Z score is given as -0.33.
On the same counts, the results for `CN1c2cc(C(=O)NCc3ccc(F)cc3)ccc2C(=O)N2CCC[C@@H]21` are -3% and 0.44.
Taken in the same sequence, the figures for `Cc1cnc(CNc2nc(CC(C)C)ns2)nc1` were -15% and 1.89.
On the same counts, the results for `CCOc1ccccc1[C@@H]1CC(c2ccc(C)cc2)=NN1c1nc(-c2ccccc2)c2cc(Cl)ccc2n1` are -8% and 1.44.
Turning to `CC(NC(=O)CC1CCCCC1C)c1nnc2c(=O)[nH]ccn12` (stereo unspecified), the “% Inhibition” value was determined as 22% and the Z score was -2.76.
Taken in the same sequence, the figures for `CCN(CC(F)(F)F)C(=O)Nc1ccc(OC)cc1F` were -5% and 0.91.
For `Cc1ccccc1N1CCN(C(=O)c2n[nH]c3c2CN(C(=O)C2CCC2)CC3)CC1`, the “% Inhibition” value is on record as -12% and the Z score was 1.17.
For the compound `O=C(N[C@@H]1CN(Cc2ccc(F)cc2F)C[C@H]1CO)c1ccccc1`, the “% Inhibition” value was -18% and the Z score is 2.51.
On the same counts, the results for `CNC(=O)C(C)(C)CNCc1ccccc1-c1ccnn1C` are 22% and -2.86.
Taken in the same sequence, the figures for `O=C(Nc1cccc2cccnc12)N1CC[C@H](OCC2CC2)C1` were 2% and -0.4.
On the same counts, the results for `COc1ccccc1N1CCN(C(=O)C[C@]2(c3ccccc3OC)CC(=O)N(C)C2=O)CC1` are 10% and -1.23.

The term % Inhibition denotes the change of the read-out against control, counted positive when it falls.
